Our source for the binding signal values is PMC5700166.

Only a part is listed here, and it is no random draw. The list includes weakly bound sequences.

Common to all, as to assay: protein-binding microarray (PBM)
What all share (details): PBM: ~300 nM protein, 6 mM HEPES pH 7.8, 80 mM KCl, 0.5 mM EDTA, 0.5 mM EGTA, 6% glycerol, 35 ng/ul poly-dIdC, 1% milk, 1 h, room temperature; Ap Aiptasia and Nv Nematostella (sea anemones) / Co Capsaspora / Aq Amphimedon (sponge) / Dm Drosophila / Hu human; RHD is the Rel homology domain; high values mean tight binding; most listed sequences are background and not binding sites; double strand, one strand shown

The target in one assay is T1, GST-Ap-NF-kB RHD (UniProt A0A913YAJ5).
T1 sequence: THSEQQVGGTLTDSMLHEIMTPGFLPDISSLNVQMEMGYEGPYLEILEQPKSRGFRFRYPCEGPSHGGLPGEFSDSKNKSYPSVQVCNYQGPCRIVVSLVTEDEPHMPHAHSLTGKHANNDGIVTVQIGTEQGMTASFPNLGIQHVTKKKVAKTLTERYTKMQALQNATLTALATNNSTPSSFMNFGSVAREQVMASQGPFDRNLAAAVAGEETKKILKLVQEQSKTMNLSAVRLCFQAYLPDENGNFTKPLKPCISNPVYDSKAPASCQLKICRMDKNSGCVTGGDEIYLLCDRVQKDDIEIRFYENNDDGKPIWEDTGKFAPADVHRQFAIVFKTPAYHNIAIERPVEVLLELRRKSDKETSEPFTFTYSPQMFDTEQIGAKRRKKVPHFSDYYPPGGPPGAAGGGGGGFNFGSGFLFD

Assay [1] concerns the target T2, GST-Nv-NF-kB (Cys allele) (UniProt E5G601).
T2 sequence: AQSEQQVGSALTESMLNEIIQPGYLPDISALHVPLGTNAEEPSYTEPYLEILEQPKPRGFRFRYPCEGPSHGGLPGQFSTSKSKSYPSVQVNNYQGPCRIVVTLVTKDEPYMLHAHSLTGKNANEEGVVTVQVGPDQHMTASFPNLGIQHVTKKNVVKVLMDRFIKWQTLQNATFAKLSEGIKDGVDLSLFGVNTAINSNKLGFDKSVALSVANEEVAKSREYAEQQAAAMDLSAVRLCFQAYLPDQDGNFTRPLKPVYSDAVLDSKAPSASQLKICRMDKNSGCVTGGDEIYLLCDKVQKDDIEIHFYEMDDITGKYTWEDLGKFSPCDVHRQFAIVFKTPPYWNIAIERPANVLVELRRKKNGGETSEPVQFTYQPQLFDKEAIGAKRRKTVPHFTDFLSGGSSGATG

A further assay concerns the target T3, GST-Co-NF-kB (UniProt F1ARL5).
T3 sequence: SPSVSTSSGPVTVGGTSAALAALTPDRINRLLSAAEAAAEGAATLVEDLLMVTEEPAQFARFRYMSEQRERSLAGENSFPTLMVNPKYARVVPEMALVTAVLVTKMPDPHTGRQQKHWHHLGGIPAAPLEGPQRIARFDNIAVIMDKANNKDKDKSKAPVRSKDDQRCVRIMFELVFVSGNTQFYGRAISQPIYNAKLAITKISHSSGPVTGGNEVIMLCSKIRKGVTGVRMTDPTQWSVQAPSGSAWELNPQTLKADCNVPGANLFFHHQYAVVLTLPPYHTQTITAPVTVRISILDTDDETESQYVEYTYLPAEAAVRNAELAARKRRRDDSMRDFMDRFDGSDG

The next assay concerns the target T4, GST-Dm-Relish (UniProt Q94527).
T4 sequence: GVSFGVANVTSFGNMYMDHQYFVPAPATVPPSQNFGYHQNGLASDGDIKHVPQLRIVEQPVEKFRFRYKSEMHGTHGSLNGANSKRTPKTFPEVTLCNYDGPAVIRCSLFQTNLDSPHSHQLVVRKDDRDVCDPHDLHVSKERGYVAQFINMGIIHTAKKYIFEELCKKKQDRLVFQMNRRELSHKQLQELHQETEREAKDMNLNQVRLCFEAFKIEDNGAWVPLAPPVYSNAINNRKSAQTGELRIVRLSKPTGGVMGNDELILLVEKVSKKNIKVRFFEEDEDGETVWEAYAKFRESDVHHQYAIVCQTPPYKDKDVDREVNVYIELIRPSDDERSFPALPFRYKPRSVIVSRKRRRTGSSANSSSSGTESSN

The target of another assay is T5, GST-Aq-NF-kB (UniProt A9Y5G7).
T5 sequence: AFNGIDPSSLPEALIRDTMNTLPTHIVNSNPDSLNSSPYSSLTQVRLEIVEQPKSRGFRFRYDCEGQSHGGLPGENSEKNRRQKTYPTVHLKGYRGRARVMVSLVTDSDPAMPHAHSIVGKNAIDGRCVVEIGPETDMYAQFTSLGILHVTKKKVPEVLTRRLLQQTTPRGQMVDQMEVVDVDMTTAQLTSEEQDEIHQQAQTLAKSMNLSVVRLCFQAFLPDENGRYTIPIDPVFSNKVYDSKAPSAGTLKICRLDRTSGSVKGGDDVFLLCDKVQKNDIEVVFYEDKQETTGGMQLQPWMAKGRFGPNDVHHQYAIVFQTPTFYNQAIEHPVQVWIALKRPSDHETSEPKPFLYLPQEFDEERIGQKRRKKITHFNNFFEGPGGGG

For “CCGATTAACATCACTTTCGACCATGATGTTAATCGGGTCTTGATTCGCTTGACGCTGCTG”, the binding signal is 0.0137 z-score with GST-Ap-NF-kB RHD; -0.542 z-score in assay [1]; 0.35 z-score with GST-Co-NF-kB; -0.0416 z-score with GST-Dm-Relish; -0.231 z-score with GST-Aq-NF-kB.

For “CCGATTAACATCACTACACCAAATGATGTTAATCGGGTCTTGATTCGCTTGACGCTGCTG”, the binding signal was 0.379 z-score with GST-Ap-NF-kB RHD; -0.628 z-score in assay [1]; 0.51 z-score in the assay with GST-Co-NF-kB; -0.0614 z-score with GST-Dm-Relish; -0.227 z-score with GST-Aq-NF-kB.

Turning to “CCGATTAACATCAGTGGTAAAACTGATGTTAATCGGGTCTTGATTCGCTTGACGCTGCTG”, the binding signal is -0.652 z-score with GST-Ap-NF-kB RHD; -0.296 z-score in assay [1]; -0.707 z-score in the assay with GST-Co-NF-kB; -0.0978 z-score with GST-Dm-Relish; -0.447 z-score with GST-Aq-NF-kB.

With “CCGATTAACATCAGCAGTGTGCATGATGTTAATCGGGTCTTGATTCGCTTGACGCTGCTG”, the binding signal with GST-Ap-NF-kB RHD is -0.555 z-score; in assay [1] it was -0.148 z-score; in the assay with GST-Co-NF-kB, -0.0512 z-score; with GST-Dm-Relish it was 0.054 z-score; in the assay with GST-Aq-NF-kB, -0.217 z-score.

On to “CCGATTAACATCAAACACTGCTTTGATGTTAATCGGGTCTTGATTCGCTTGACGCTGCTG”, for which the binding signal is -0.605 z-score in the assay with GST-Ap-NF-kB RHD; -0.849 z-score in assay [1]; -0.757 z-score with GST-Co-NF-kB; -0.877 z-score with GST-Dm-Relish; -0.732 z-score in the assay with GST-Aq-NF-kB.

Turning to “CCGATTAACATCACTTGCTTGCGTGATGTTAATCGGGTCTTGATTCGCTTGACGCTGCTG”, the binding signal is -0.451 z-score in the assay with GST-Ap-NF-kB RHD; -0.254 z-score in assay [1]; -0.563 z-score with GST-Co-NF-kB; 0.215 z-score in the assay with GST-Dm-Relish; -0.653 z-score in the assay with GST-Aq-NF-kB.

“CCGATTAACATCACGGCTCGTGATGATGTTAATCGGGTCTTGATTCGCTTGACGCTGCTG”: the binding signal is -0.451 z-score with GST-Ap-NF-kB RHD; -1.15 z-score in assay [1]; -0.262 z-score with GST-Co-NF-kB; 0.0889 z-score with GST-Dm-Relish; -0.517 z-score with GST-Aq-NF-kB.

As for “CCGATTAACATCACTGTCGCGGATGATGTTAATCGGGTCTTGATTCGCTTGACGCTGCTG”, the binding signal is 0.171 z-score with GST-Ap-NF-kB RHD; 0.0728 z-score in assay [1]; -0.0474 z-score with GST-Co-NF-kB; -0.179 z-score in the assay with GST-Dm-Relish; -0.507 z-score in the assay with GST-Aq-NF-kB.

Consider “CCGATTAACATCAATGTCTCGAGTGATGTTAATCGGGTCTTGATTCGCTTGACGCTGCTG”, for which the binding signal with GST-Ap-NF-kB RHD is -0.991 z-score; in assay [1], -0.144 z-score; with GST-Co-NF-kB, -0.521 z-score; in the assay with GST-Dm-Relish, -0.0557 z-score; with GST-Aq-NF-kB, -0.435 z-score.

“CCGATTAACATCAAAATTCGTCATGATGTTAATCGGGTCTTGATTCGCTTGACGCTGCTG”: the binding signal with GST-Ap-NF-kB RHD is -0.356 z-score; in assay [1] it was -0.14 z-score; with GST-Co-NF-kB it was -0.178 z-score; in the assay with GST-Dm-Relish it was -0.41 z-score; with GST-Aq-NF-kB it was -0.263 z-score.

On to “CCGATTAACATCAGGAACATTCCTGATGTTAATCGGGTCTTGATTCGCTTGACGCTGCTG”, for which the binding signal with GST-Ap-NF-kB RHD is -0.737 z-score; in assay [1] it was -0.0817 z-score; in the assay with GST-Co-NF-kB, -0.784 z-score; in the assay with GST-Dm-Relish, -0.256 z-score; with GST-Aq-NF-kB, 0.404 z-score.

For “CCGATTAACATCACGAGAATTCCTGATGTTAATCGGGTCTTGATTCGCTTGACGCTGCTG”, the binding signal was found to be 0.096 z-score with GST-Ap-NF-kB RHD; 0.208 z-score in assay [1]; 0.366 z-score with GST-Co-NF-kB; 0.645 z-score in the assay with GST-Dm-Relish; 0.604 z-score with GST-Aq-NF-kB.

For the sequence “CCGATTAACATCATGATGTTCCGTGATGTTAATCGGGTCTTGATTCGCTTGACGCTGCTG”, the binding signal in the assay with GST-Ap-NF-kB RHD is -0.392 z-score; in assay [1], -0.0775 z-score; with GST-Co-NF-kB, 0.00982 z-score; in the assay with GST-Dm-Relish, -0.138 z-score; with GST-Aq-NF-kB, -0.0225 z-score.

On to “CCGATTAACATCACCTTTATCCATGATGTTAATCGGGTCTTGATTCGCTTGACGCTGCTG”, for which the binding signal was 0.157 z-score with GST-Ap-NF-kB RHD; -0.864 z-score in assay [1]; 0.346 z-score in the assay with GST-Co-NF-kB; 0.137 z-score with GST-Dm-Relish; 0.607 z-score with GST-Aq-NF-kB.
